# Test results taken from PMC10668032.
# This is one part of the list. At the low end of the ranking, values are background and their order means little.
# Molecular target: SIX1 homeodomain (reference allele) (UniProt Q15475)
# Assay: universal protein binding microarray
# Details: Universal all-10-mer PBM (8x60K, AMADID 030236), 300 nM GST-tagged protein, Alexa Fluor 488 anti-GST; buffer, salt, pH and temperature not stated; high values mean tight binding; most listed sequences are background and not binding sites; double strand, one strand shown
row,Sequence,binding signal
1,AGGACCGA,-0.153 E-score
2,AACAATAT,0.253 E-score
3,ACCTACTG,-0.0428 E-score
4,GCAAGACA,-0.17 E-score
5,ACCTAGGG,0.118 E-score
6,ACCCTGAG,0.144 E-score
7,GACGGCAA,-0.0296 E-score
8,GGCTCTAA,0.117 E-score
9,GTCTTGAA,-0.227 E-score
10,AACCACCC,-0.127 E-score
11,CACGTACG,-0.0874 E-score
12,AAAGTAGA,0.115 E-score
13,CCATGTTC,-0.11 E-score
14,AGGTGCAT,-0.18 E-score
15,CTAGATGC,0.153 E-score
16,CTTCAACA,-0.0206 E-score
17,GGAATATA,0.0955 E-score
18,ATACAGAT,0.292 E-score
19,GCTATCAA,0.312 E-score
20,CTACCTTC,-0.0237 E-score
21,CTTAAATC,-0.112 E-score
22,AACTGTTG,-0.204 E-score
23,AAAACAGT,-0.171 E-score
24,CTCGGTAA,-0.0852 E-score
25,ACAAAGAT,0.0452 E-score

row,Sequence,binding signal
1,CTCGCTTC,-0.096 E-score
2,AACGTAGC,-0.308 E-score
3,ACACACTA,-0.0503 E-score
4,AATCTAAT,-0.194 E-score
5,AGCCCTAT,0.0563 E-score
6,ATACTACA,0.348 E-score
7,CCCCTGAG,0.0921 E-score
8,TACTGTCA,0.0043 E-score
9,ATAATAGC,0.106 E-score
10,CGTGAATC,0.0225 E-score
11,ACAATACT,0.234 E-score
12,AACCCAGG,0.012 E-score
13,GCGATACA,0.376 E-score
14,AAGGATCT,0.267 E-score
15,AGTCCTGC,-0.208 E-score
16,ACGGGCAG,0.0196 E-score
17,ACGCCGAT,0.182 E-score
18,GTCGAGCA,-0.241 E-score
19,GGCCGAGA,-0.113 E-score
20,CGAAAAAG,-0.155 E-score
21,GACAAAAA,-0.238 E-score
22,GCACAAAC,-0.144 E-score
23,AGACAATC,-0.0257 E-score
24,CTATTTTC,-0.056 E-score
25,AGCTATCC,0.149 E-score

row,Sequence,binding signal
1,GATTGGAA,-0.0376 E-score
2,CTACTTAA,-0.135 E-score
3,CTGGTACA,0.0187 E-score
4,CCCCGCAA,-0.03 E-score
5,ATGCCTCC,-0.124 E-score
6,ACGGCCCA,-0.00878 E-score
7,ACGGGTAA,-0.00364 E-score
8,AGAGCCCA,-0.226 E-score
9,AACAGGGG,-0.0256 E-score
10,GGGTAACA,0.0846 E-score
11,ACGGTTAT,0.0573 E-score
12,ATGAGGGC,0.0539 E-score
13,TGAGCGAA,-0.141 E-score
14,ACGCGCAA,-0.043 E-score
15,AATGAACA,-0.108 E-score
16,CTGGCTAC,0.0132 E-score
17,AATCGGAC,-0.137 E-score
18,CCGGGAGG,-0.0434 E-score
19,GGACGTTA,-0.0978 E-score
20,AGTTGGTC,-0.188 E-score
21,ACTGTGAG,0.108 E-score
22,CGCAAAGC,-0.162 E-score
23,CTTTATCC,0.084 E-score
24,GCACACAC,-0.223 E-score
25,CAGTGTAG,0.161 E-score

row,Sequence,binding signal
1,AGAAAGAT,0.0209 E-score
2,ACACAGAT,0.213 E-score
3,AACTATAC,0.24 E-score
4,CAGGTGAG,0.0985 E-score
5,AAATTTCG,-0.104 E-score
6,ATTAGTCG,0.0293 E-score
7,ACATCATC,-0.0921 E-score
8,AGTACTTG,-0.115 E-score
9,ACCCACTC,0.0919 E-score
10,ATGCCGGA,0.217 E-score
11,AAGGTTTC,0.0148 E-score
12,AGGTTATC,0.111 E-score
13,CACCATAC,0.0902 E-score
14,ACAGTACG,-0.164 E-score
15,AATCACCA,-0.00782 E-score
16,TAGGATGA,0.199 E-score
17,GGGAAGAA,-0.185 E-score
18,GCTTCAGA,-0.286 E-score
19,CAGGCGGC,-0.0438 E-score
20,CCTCGTTC,-0.0948 E-score
21,TACACAAA,0.00641 E-score
22,AAAAATTG,-0.268 E-score
23,CGAGTCCA,-0.0913 E-score
24,ACGATCTG,0.219 E-score
25,GAATCCGC,0.0932 E-score

row,Sequence,binding signal
1,GCGAGTCA,-0.199 E-score
2,GAGAATGC,-0.0136 E-score
3,ATTGTTTG,-0.217 E-score
4,TAGGGCAA,-0.163 E-score
5,AGGCTCGA,-0.024 E-score
6,GTCCGCCA,-0.154 E-score
7,ATTGTCTG,0.0874 E-score
8,CCGTCAAG,-0.205 E-score
9,TGCAAGCA,-0.174 E-score
10,ATTGCAAG,-0.00301 E-score
11,TCTTACCA,0.0472 E-score
12,CAGAGACG,0.103 E-score
13,GTCCATTA,-0.18 E-score
14,ACGCGAGA,0.138 E-score
15,AAGGTCAC,-0.182 E-score
16,GGGTAAAC,0.0272 E-score
17,ACATAGGG,-0.176 E-score
18,GTCTAAAA,-0.164 E-score
19,AAGGGACA,-0.158 E-score
20,AAAATGCA,-0.147 E-score
21,CAGAAGGG,0.0385 E-score
22,AGGGACTA,-0.149 E-score
23,TGTAATAA,-0.081 E-score
24,AATTACCC,-0.03 E-score
25,GAAGACGA,0.185 E-score

row,Sequence,binding signal
1,CACTGCAG,-0.204 E-score
2,GCCATACA,-0.13 E-score
3,CCATGCAA,0.00377 E-score
4,AAACTGGC,-0.0878 E-score
5,ATGACAAA,-0.205 E-score
6,AAATCTTA,-0.133 E-score
7,AAAGTCGC,-0.14 E-score
8,CCTGCGCA,-0.109 E-score
9,AAAGCCAA,-0.322 E-score
10,CGCCCATC,0.0415 E-score
11,ATTGTCAA,0.0497 E-score
12,AATGGACC,-0.0751 E-score
13,ATGAGGAC,0.103 E-score
14,GAATGCAA,-0.197 E-score
15,ACTCATCT,-0.0072 E-score
16,AGCTTCAG,-0.183 E-score
17,GGGCACTA,-0.111 E-score
18,CCCAACCA,0.0273 E-score
19,ATCGGGCG,0.107 E-score
20,GATAGTAC,0.212 E-score
21,CCCGCAGC,-0.0795 E-score
22,AAGTAGGT,-0.187 E-score
23,CACTGGGC,-0.0902 E-score
24,ACCGAGCC,-0.0194 E-score
25,AGAACAAG,0.0252 E-score

row,Sequence,binding signal
1,AGCCCACC,-0.154 E-score
2,ACCATTGG,0.122 E-score
3,AGAGCACG,-0.0729 E-score
4,AGCAACAG,-0.15 E-score
5,GAGTTATA,0.0269 E-score
6,TCTAGAGA,-0.0495 E-score
7,ATATCTAC,0.387 E-score
8,CGGCCGTC,-0.287 E-score
9,AGCGGAAG,-0.0825 E-score
10,AATACAGA,-0.0309 E-score
11,AGACGGTG,0.118 E-score
12,CCTCTAAG,0.0606 E-score
13,TAAGAGTA,0.0505 E-score
14,GAAAGGCA,-0.122 E-score
15,ACAACAAC,-0.229 E-score
16,AACATACA,0.0358 E-score
17,AGAGTAAG,-0.16 E-score
18,CGACAACA,-0.0476 E-score
19,ACGTCACA,-0.208 E-score
20,ACTGTATA,0.239 E-score
21,CAGGAAAG,-0.135 E-score
22,ATTGAGTA,0.192 E-score
